For some assays here: What follows is the remainder of the data, with few or none of the strong results. This is a selection; strong and weak results do not stand in their true shares.
How the values were obtained:
[1] = target: Rho-associated protein kinase 1 (Homo sapiens) (UniProt Q13464); details: at 1 µM;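 further: reported values are mean percent inhibition of ROCK1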
[2] = target: Rho-associated protein kinase 2 (Homo sapiens) (UniProt O75116); details: at 0.1 µM
[3] = target: Rho-associated protein kinase 2 (Homo sapiens) (UniProt O75116); details: at 1 µM
[4] = target: Ribosomal protein S6 kinase alpha-1 (Homo sapiens) (UniProt Q15418); details: at 0.1 µM
UniProt Q15418, sequence (Q15418 whole entry): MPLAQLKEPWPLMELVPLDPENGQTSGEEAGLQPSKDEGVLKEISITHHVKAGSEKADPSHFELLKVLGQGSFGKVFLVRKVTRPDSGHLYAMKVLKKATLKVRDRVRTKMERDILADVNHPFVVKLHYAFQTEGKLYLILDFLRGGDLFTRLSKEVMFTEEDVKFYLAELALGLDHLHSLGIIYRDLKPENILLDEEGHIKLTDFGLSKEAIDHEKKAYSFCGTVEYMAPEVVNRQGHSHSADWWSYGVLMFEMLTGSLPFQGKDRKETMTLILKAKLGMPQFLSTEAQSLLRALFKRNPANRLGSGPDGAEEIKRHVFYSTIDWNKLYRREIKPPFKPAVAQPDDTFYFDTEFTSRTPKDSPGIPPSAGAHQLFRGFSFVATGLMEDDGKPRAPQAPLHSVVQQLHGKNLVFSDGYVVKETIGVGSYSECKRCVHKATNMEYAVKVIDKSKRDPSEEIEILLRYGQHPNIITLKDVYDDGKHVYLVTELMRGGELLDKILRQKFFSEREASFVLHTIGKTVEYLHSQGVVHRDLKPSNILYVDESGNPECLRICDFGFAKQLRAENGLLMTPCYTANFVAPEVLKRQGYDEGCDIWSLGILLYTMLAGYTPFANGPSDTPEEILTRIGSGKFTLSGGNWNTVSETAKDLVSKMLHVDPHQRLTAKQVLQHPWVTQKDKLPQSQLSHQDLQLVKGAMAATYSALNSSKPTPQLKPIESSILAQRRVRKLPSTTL

[5] = target: Ribosomal protein S6 kinase alpha-1 (Homo sapiens) (UniProt Q15418); details: at 1 µM
[6] = target: Ribosomal protein S6 kinase alpha-3 (Homo sapiens) (UniProt P51812); details: at 0.1 µM
UniProt P51812, sequence (P51812 whole entry): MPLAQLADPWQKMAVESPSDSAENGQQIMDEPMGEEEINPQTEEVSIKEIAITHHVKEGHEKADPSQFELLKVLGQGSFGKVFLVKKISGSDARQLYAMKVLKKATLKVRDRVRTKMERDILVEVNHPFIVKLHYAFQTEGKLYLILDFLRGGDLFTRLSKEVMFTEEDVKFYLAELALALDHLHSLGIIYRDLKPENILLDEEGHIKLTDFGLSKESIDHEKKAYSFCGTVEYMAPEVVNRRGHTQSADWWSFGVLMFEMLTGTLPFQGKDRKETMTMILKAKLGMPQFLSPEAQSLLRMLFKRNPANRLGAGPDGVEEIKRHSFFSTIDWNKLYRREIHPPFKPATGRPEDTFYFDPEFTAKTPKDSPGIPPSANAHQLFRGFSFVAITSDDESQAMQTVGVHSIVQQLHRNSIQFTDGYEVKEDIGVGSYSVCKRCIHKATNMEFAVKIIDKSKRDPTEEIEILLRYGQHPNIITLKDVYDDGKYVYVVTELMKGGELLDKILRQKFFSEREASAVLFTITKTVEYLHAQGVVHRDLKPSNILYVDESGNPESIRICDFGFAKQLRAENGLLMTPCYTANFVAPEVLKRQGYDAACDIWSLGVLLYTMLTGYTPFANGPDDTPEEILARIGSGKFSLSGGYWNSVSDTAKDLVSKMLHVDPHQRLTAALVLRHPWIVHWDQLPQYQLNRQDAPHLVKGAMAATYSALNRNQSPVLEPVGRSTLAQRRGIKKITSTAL

[7] = target: Ribosomal protein S6 kinase alpha-3 (Homo sapiens) (UniProt P51812); details: at 1 µM
[8] = target: Ribosomal protein S6 kinase alpha-2 (Homo sapiens) (UniProt Q15349); details: at 0.1 µM
UniProt Q15349, sequence (Q15349 whole entry): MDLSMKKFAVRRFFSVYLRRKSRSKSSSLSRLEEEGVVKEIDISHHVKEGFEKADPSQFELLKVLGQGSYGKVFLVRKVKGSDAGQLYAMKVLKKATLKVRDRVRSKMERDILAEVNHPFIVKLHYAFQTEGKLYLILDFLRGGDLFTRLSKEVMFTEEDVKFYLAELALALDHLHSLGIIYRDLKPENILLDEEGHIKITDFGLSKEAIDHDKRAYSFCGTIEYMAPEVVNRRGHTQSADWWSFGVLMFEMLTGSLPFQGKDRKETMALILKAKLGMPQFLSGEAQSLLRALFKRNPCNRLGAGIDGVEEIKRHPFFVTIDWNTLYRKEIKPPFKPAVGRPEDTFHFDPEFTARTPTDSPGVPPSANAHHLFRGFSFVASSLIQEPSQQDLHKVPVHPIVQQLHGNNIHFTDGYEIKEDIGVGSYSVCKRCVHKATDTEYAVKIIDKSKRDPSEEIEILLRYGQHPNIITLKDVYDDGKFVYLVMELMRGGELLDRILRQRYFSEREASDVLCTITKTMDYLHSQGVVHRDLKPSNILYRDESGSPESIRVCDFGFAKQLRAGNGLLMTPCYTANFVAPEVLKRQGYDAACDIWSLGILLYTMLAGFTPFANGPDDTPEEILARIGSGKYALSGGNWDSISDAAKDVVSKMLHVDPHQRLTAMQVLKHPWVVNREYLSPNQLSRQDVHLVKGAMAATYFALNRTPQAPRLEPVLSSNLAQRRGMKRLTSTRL

[9] = target: Ribosomal protein S6 kinase alpha-2 (Homo sapiens) (UniProt Q15349); details: at 1 µM
[10] = target: Ribosomal protein S6 kinase alpha-6 (Homo sapiens) (UniProt Q9UK32); details: at 0.1 µM
UniProt Q9UK32, sequence (Q9UK32 whole entry): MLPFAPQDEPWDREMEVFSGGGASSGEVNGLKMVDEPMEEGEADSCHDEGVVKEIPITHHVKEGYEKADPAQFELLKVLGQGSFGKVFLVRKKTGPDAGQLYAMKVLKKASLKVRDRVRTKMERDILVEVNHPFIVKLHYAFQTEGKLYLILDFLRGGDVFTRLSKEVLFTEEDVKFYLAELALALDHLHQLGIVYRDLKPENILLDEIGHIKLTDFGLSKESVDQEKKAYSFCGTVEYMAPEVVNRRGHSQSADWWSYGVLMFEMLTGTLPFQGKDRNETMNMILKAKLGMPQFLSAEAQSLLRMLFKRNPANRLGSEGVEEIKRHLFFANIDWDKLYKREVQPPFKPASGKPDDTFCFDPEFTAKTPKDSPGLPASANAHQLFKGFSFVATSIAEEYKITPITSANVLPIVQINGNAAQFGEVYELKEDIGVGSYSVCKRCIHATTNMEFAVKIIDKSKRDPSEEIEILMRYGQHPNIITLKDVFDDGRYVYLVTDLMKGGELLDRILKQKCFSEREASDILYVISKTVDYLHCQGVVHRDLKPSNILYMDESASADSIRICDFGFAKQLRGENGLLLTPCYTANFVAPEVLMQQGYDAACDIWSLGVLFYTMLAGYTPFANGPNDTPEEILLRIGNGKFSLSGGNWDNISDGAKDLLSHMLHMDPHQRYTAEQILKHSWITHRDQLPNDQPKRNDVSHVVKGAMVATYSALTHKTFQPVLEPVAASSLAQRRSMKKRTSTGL

[11] = target: Ribosomal protein S6 kinase alpha-6 (Homo sapiens) (UniProt Q9UK32); details: at 1 µM
[12] = target: T1, Serine/threonine-protein kinase Sgk1 (Homo sapiens) (UniProt O00141); details: at 0.1 µM
T1 sequence (whole entry): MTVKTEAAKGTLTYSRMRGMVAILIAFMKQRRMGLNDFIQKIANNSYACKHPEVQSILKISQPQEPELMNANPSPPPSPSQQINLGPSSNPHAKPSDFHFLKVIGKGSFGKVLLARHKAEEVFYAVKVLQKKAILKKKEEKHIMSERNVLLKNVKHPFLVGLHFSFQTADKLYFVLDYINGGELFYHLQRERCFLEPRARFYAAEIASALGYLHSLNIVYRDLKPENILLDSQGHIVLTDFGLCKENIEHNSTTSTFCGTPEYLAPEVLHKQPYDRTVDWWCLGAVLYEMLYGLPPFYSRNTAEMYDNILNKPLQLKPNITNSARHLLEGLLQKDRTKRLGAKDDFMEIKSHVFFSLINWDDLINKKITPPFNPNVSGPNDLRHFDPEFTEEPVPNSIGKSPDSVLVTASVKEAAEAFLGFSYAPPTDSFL

[13] = target: T1, Serine/threonine-protein kinase Sgk1 (Homo sapiens); details: at 1 µM
[14] = target: T2, Serine/threonine-protein kinase Sgk2 (Homo sapiens) (UniProt Q9HBY8); details: at 0.1 µM
T2 sequence (whole entry): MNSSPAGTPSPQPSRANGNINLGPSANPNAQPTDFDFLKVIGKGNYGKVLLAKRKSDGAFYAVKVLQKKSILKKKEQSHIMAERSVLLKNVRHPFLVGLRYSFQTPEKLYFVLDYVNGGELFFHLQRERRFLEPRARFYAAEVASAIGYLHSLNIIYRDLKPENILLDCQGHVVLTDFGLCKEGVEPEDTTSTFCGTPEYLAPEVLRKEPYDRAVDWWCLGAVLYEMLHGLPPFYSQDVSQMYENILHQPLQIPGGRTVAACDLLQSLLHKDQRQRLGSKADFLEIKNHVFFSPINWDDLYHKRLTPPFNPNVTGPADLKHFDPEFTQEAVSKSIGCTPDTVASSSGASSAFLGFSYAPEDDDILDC

[15] = target: T2, Serine/threonine-protein kinase Sgk2 (Homo sapiens); details: at 1 µM
[16] = target: T3, Serine/threonine-protein kinase Sgk3 (Homo sapiens) (UniProt Q96BR1); details: at 0.1 µM
T3 sequence (whole entry): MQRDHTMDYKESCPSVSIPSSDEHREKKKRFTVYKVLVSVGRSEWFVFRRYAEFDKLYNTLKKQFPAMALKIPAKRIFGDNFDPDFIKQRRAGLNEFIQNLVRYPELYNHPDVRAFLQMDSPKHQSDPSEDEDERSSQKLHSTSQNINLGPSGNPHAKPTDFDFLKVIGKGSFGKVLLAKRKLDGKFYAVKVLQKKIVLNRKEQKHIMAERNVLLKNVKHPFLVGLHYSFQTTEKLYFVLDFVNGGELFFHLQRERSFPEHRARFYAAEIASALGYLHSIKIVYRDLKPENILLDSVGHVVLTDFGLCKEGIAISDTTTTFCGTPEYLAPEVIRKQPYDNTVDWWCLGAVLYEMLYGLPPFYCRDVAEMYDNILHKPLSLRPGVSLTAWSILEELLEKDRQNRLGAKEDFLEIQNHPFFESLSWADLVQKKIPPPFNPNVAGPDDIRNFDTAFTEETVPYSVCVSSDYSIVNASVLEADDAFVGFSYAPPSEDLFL

[17] = target: T3, Serine/threonine-protein kinase Sgk3 (Homo sapiens); details: at 1 µM
[18] = target: 5'-AMP-activated protein kinase catalytic subunit alpha-1 (Homo sapiens) (UniProt Q13131); details: at 0.1 µM
[19] = target: 5'-AMP-activated protein kinase catalytic subunit alpha-1 (Homo sapiens) (UniProt Q13131); details: at 1 µM
[20] = target: 5'-AMP-activated protein kinase catalytic subunit alpha-2 (Homo sapiens) (UniProt P54646); details: at 0.1 µM;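 further: mean inhibition measured on the AMPK complex of alpha2, beta1 and gamma1 subunits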
UniProt P54646, sequence (P54646 whole entry, looked up): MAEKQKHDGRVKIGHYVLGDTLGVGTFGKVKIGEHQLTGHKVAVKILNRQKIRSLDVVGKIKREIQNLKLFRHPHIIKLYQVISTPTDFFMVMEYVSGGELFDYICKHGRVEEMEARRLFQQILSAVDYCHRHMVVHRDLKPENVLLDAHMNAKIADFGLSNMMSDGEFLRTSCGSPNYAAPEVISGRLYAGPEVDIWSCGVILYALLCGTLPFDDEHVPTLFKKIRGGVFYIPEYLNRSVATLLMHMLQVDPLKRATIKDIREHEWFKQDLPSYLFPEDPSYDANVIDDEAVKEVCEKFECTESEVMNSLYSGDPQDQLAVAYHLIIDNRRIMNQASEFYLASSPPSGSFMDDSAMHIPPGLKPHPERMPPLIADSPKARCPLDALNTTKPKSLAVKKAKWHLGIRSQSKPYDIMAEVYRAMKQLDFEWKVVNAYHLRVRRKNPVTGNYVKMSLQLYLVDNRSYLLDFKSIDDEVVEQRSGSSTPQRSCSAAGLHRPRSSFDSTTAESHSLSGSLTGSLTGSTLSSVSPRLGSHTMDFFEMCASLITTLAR

UniProt Q13464, sequence (Q13464 whole entry, looked up): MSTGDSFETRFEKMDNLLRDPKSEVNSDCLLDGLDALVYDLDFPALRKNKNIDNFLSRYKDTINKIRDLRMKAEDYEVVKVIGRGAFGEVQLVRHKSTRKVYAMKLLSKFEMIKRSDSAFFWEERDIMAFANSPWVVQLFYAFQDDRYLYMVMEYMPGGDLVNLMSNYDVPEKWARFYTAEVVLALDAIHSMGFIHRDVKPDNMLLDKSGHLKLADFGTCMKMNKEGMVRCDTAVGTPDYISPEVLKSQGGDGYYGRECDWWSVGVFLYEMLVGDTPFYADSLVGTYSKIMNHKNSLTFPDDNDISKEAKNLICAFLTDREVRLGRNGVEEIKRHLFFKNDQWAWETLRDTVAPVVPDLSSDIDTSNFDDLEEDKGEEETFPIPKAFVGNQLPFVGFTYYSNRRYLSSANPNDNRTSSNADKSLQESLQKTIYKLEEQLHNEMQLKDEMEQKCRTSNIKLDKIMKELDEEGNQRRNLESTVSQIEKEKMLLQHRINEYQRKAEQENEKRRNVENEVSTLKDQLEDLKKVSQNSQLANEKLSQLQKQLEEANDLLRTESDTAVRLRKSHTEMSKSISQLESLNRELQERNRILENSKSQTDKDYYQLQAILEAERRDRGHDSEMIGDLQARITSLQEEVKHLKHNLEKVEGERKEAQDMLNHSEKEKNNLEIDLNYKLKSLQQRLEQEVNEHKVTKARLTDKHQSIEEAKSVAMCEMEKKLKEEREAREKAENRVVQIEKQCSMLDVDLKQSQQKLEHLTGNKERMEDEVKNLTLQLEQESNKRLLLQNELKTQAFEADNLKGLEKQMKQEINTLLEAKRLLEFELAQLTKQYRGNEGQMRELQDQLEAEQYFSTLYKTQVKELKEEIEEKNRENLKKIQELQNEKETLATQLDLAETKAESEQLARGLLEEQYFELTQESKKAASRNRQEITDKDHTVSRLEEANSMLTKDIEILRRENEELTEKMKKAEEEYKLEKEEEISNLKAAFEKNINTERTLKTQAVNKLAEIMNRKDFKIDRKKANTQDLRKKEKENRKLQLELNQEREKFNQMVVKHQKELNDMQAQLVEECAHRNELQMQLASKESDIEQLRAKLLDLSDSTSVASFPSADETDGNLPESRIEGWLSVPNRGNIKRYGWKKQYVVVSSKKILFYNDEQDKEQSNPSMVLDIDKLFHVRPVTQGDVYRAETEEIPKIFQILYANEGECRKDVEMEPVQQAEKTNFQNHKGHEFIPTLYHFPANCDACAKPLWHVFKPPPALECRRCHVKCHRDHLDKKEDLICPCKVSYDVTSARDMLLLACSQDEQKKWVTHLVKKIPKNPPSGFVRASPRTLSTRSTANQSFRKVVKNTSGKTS

| SMILES | inhibition [1] | inhibition [2] | inhibition [3] | inhibition [4] | inhibition [5] | inhibition [6] | inhibition [7] | inhibition [8] | inhibition [9] | inhibition [10] | inhibition [11] | inhibition [12] | inhibition [13] | inhibition [14] | inhibition [15] | inhibition [16] | inhibition [17] | inhibition [18] | inhibition [19] | inhibition [20] |
| --- | --- | --- | --- | --- | --- | --- | --- | --- | --- | --- | --- | --- | --- | --- | --- | --- | --- | --- | --- | --- |
| O=C1NC(=O)C(c2cccc([N+](=O)[O-])c2)=C1Nc1cc(Cl)c(O)c(Cl)c1 | -0.21% | 1.79% | 0.12% | 0.63% | 3.34% | 2.73% | 9.07% | 1.76% | 10.8% | 1.82% | 11.2% | 1.37% | 0.49% | 2.32% | -0.94% | -0.41% | 1.23% | 2.33% | 5.09% | 1.6% |
| Fc1ccc(Oc2nccc(-c3c(-c4ccc(F)cc4)ncn3C3CCNCC3)n2)cc1 | 1.58% | 2.81% | 2.18% | 1.25% | 0.35% | -0.53% | -1.25% | 2.02% | 0.02% | 0.73% | 0.39% | 1.63% | 0.85% | 2.32% | 3.35% | 3.29% | 2.8% | 2.91% | 3.45% | 6.3% |
| O=C(O)c1ccc(Oc2nccc(-c3c(-c4ccc(F)cc4)ncn3C3CCNCC3)n2)cc1 | 2.08% | 2.6% | 3.44% | 0.55% | 1.46% | -0.13% | 1.21% | 0.19% | 2.1% | -0.07% | 1.86% | 1.16% | 2.81% | 3.28% | 2.6% | 3.28% | 4.11% | 1.57% | 3.95% |  |
| CC(C)(C)c1ccc(Oc2nccc(-c3c(-c4ccc(F)cc4)ncn3C3CCNCC3)n2)cc1 | 4.05% | 2.97% | 3.48% | 0.88% | 0.99% | 1.1% | 1.87% | 1.55% | 2.44% | 0.79% | 0.57% | 1.84% | 1.38% | -0.53% | 2.76% | 1.51% | 1.86% | 2.05% | 4.58% | 4.13% |
| Cc1cccc(Oc2nccc(-c3c(-c4ccc(F)cc4)ncn3C3CCNCC3)n2)c1C | 4.68% | 2.54% | 4.11% | 1.47% | 2.71% | 1.59% | 2.56% | 2.62% | 4.17% | 0.82% | 0.92% | 2.84% | 3.03% | 1.23% | 2.96% | 1.41% | 2.42% | 3.33% | 4.68% | 4.56% |
| Fc1ccc(-c2ncn(C3CCNCC3)c2-c2ccnc(Oc3cccc(F)c3)n2)cc1 | 4.1% | 4.09% | 4.98% | 3.06% | 2.03% | -0.53% | 2.66% | 3.43% | 4.59% | 1.37% | 2.84% | 2.23% | 3.62% | 4% | 3.79% | 3.65% | 4.85% | 1.39% | 3.97% | 5.76% |
| Fc1ccc(-c2ncn(C3CCNCC3)c2-c2ccnc(Oc3cccc(C(F)(F)F)c3)n2)cc1 | 3.13% | 3.87% | 3.72% | 1.78% | 5.59% | 1.01% | -0.14% | 2.37% | 2.82% | 0.51% | 0.63% | 4.08% | 3.32% | 2.14% | 5.28% | 3.05% | 5.02% | 3.44% | 4.51% | 3.92% |
| COc1ccccc1C1=C(Nc2ccccc2)C(=O)NC1=O | 0.72% | 3.16% | 4.34% | 1.67% | 4.91% | 1.36% | 4.83% | 2.69% | 11.3% | 2.45% | 11.1% | 1.69% | 3.01% | 0.36% | 1.68% | 3.53% | 5.07% | 2.92% | 5.01% | 1.85% |
| O=C1NC(=O)C(c2ccccc2)=C1Nc1ccccc1 | 0.95% | 3.61% | 4.65% | 3.28% | 10.2% | 2.84% | 12.1% | 4.11% | 9.99% | 1.85% | 9.47% | 4.37% | 6.27% | 3.66% | 2.79% | 1.97% | 5.81% | 4.95% | 6.83% | 3.83% |
| O=C1NC(=O)C(c2ccccc2Cl)=C1Nc1cc(Cl)c(O)c(Cl)c1 | 2.31% | 3.01% | 7.02% | 0.93% | 3.76% | 0.19% | 1.69% | 1.27% | 2.74% | 0.39% | 0.63% | 2.07% | 5.19% | 3% | 5.23% | 5.89% | 3.81% | 1.96% | 4.1% | -0.82% |
| COc1ccccc1Oc1nccc(-c2c(-c3ccc(F)cc3)ncn2C2CCNCC2)n1 | 6.23% | 3.92% | 7.66% | 1.31% | 3.85% | -0.14% | 2.74% | 3.32% | 4.89% | 0.85% | 1.52% | 3.66% |  | 2.63% | 2.1% | 3.65% | 2.78% | 3.09% | 7.3% | 4.16% |
| Fc1ccc(-c2ncn(C3CCNCC3)c2-c2ccnc(Oc3ccc(Cl)cc3)n2)cc1 | 2.5% | 0.7% | 0.87% | -0.43% | -0.6% | -1.56% | -0.44% | 0.99% | 2.01% | -0.75% | 0.04% | 1.68% | 0.8% | 0.37% | 1.38% | 0.04% | -0.05% | 10% | -0.04% | 2.52% |
| CS(=O)(=O)c1ccc(Oc2nccc(-c3c(-c4ccc(F)cc4)ncn3C3CCNCC3)n2)cc1 | 3.26% | 3.03% | 3.45% | 0.27% | 1.4% | 1.64% | 1.45% | 1.73% | 2.32% | 0.53% | 0.45% | 3.75% | 2.04% | 3.31% | 1.96% | 1.37% | 4.22% | 2.41% | 3.51% | 2.06% |
| NC(=O)CCc1ccccc1Oc1nccc(-c2c(-c3ccc(F)cc3)ncn2C2CCNCC2)n1 | 0.72% | -0.65% | -0.5% | -0.45% | 1.1% | -0.57% | -1.82% | 0.35% | 0.42% | -1.65% | 0.12% | 1.87% | 0.47% | 1.07% | 2.65% | -1.9% | 1.01% | 0.72% | -0.27% | 3.01% |

— ChEMBL document CHEMBL1961873, “Compounds: GSK PKIS; Assays: Nanosyn kinase panel” (2012)
